Some of the results follow. Binding of human antibodies (heavy:light variable regions, tested as scFv in one mRNA-display pool) to influenza hemagglutinin, with or without the stem antibody CR9114 bound first. Score = (mean enrichment − median) / interquartile range of that screen; higher = more enriched, 0 = typical non-binder. Active = above the paper's cut-off per screen: stems 28; unblocked H1 Solomon Islands 5, H1 Michigan 3, H3 5, H5 19, H7 2.85, both B 5; blocked 9, 7, H5 10, H7 10, B Phuket 10, B Lee 11.5. Scores are scaled within each screen and are no affinities; replicates correlate at about 0.6 to 0.9, and antibodies rare in the pool are noisier.
B1: K77-1D09 (protein)
chain 1: QVQLQESGPGLVKPSETLSLTCTVSDGSVSSSSYFWGWIRQPPGKGLEWIGSIYYTGDTDYNPSLKGRVTISVDSSKNQFSLRLSSLTAADTAVYYCAREGPAWVRYSFDYWGQGSLVTVSS
chain 2: QSALTQPASVSGSPGQSITISCTGTSSDVDDYNYVSWYQQDPGKAPKLIIYHVNKRPSGVSHRFSGSKSGNTASLTISGLQAEDEADYYCSSYTSSNTPVVFGGGTKLTVL
B2: antibody 3E01 (protein)
chain 1: VQLQESGPGLLKPSETLSLICSVSDYSVTTSTSYWGWIRQTPGKGLEWIGSLSYSGFSYYNPSLRSRVTMSFDSSKKQVSLRLNSVTAADTAVYYCAILYGSIIDYWGPGILVTVSS
chain 2: DIQMTQSPSTLSASVGDRVTITCRASQSIRTWLAWYQQKPGKAPKLLISRASILESGDPSRFSGSGSGTEFTFTISSLQPDDFATYYCQHYNNYWWTFGQGTKVEIK
B3: 01.r.01 (protein)
chain 1: QVQLQESGPGLVKPSQTLSLTCTVSGGSISSGSYYWSWIRQPAGKGLEWIGSIYTSGSTDYNPSLKNRVSISIDTSKNHFSLVLSSVTAADTAVYFCARDQWEGAFSYGAGFWGQGAVVTVSS
chain 2: DIQMTQSLSSVSASIGDRVTIICRASQGVGNWLVWYQQKPGKARKLLMYAASTLQTDVPSRVSGRGYGTEFTLTISSEQHEDYANYYCQQAHSQPRTFGQGTKVEVK
B4: K77-2H01 (protein)
chain 1: EVQLVQSGAEVKKPGESLKISCEASGDNFSSYWIAWVRQMPGKGLEWMGIIYPGDSDTRYSPPFQGQVTISADKSIRTAYLQWSSLKASDTAMYYCATSMMSFYYDESDAFRWALAAFDIWGHGTPVTVSS
chain 2: EIVLTQSPGTLSLSPGERATLSCRASQSVASSSLAWYQQKPGQAPRLLIYSTSNRATGIPGRFSGSGSGTDFILTVNRLEPEDFAVYYCQHNDSSPAWSFGQGTKVEI
B5: W85-1E07 (protein)
chain 1: EVQLVESGGGLVQPGGSLRLSCAASGFKVGDNYMSWVRQAPGKGLEWVSIIYGGGRTYYADSVKGRFTLSRDNSKNTLSLQMNSLRGEDTAVYYCARDGVAGGEGAYDIWGQGTMVTVSS
chain 2: DIQMTQSPSSLSASVGDRVIITCRASQPISSYLNWYQQKPGKAPNLVIYSASSLQSGVPSRFSGSGSGTDFTLSISNLQPEDFATYYCQQSYSDPYTCGQGTKLEIK
B6: R95-1H06 (protein)
chain 1: LVQLQESGPGLVKPSETLSLTCTVSGDSFTTYYWSWIRQPPGKGLEWIGYIYTIGRTHYNPALKSRVAISVDTSKNQFSLNLTSVTAADTAVYYCARIRIRGADYPFDHWGQGSLVTVHS
chain 2: SYELTQPPSVSVAPGQTARISCGGDNIGSKNVHWYQQKPGRAPVLVVYDDTDRPSGIPDRFSGSNSGDTATLTITRLEAGDEADYYCHVWDSTGDHQGVFGGGTKLTVL
B7: antibody 1D05 (protein)
chain 1: VQLLESGGGLVQPGGSLRLSCAASGFAFNTYAMSWVRQAPGKGLEWVSASGGLHGASYYADSVQGRFTIYRGNSKSTLYLQMNYLRAEDTAVYYCATDLDGDEGTWFENWGQGTLVTVSS
chain 2: EIVMTQSPATLSVSPGERATLSCRASQSLSNNLTWYQQKPGQAPRLLIYGASTRATGLPARFSGSGSGTEFTLTISSLQSEDFAVYFCQQYNNWPPTFGQGTKVEIK
B8: R95-2F01 (protein)
chain 1: QVQLQESGPGLVKPSETLSLTCTVSGGSISSHYWSWIRQPPGKGLEWIGYIYDSGKTNHNPTLKSRVTISADTSKNQFSLKLSSVTAADTAVYYCASARRYCSSTSCYGLEYYFGMDVWGQGTTVTVSS
chain 2: DIVMTQSPLSLPVTPGEPASISCRSSQSLVHSNGHNYLDWYLQKPGQSPQLLIYLSSSRASGVPDRFSGSGSGTDFTLKINRVEAEDVGVYFCMQALQAPYTFGQGTRLEIK
B9: SFV020-5C05 (protein)
chain 1: VQLVESGGGVVQPGRSLRLSCAASGFSFSNYGIHWVRQVPGKGLEWVAVISHAGAYKYYADSVRGRFTISRDNSKNILYLQMNSLRVEDTAVYYCATLGGDIVVVSAERSGYYYGLDVWGQGTTVTVSS
chain 2: DIQMTQSPSTLSASVGDRVTITCRASQSISNRLVWYQQKPGTAPKLLIYQASTLEGEVPSRFSGSGSGTEFTLTITSLQPDDLATYFCQQYNTNSRTFGQGTKVEIK
B10: SFV018-4D01 (protein)
chain 1: QVQLQESGPGLVKPSETLSLTCSVSGGSISPHYWSWIRQPPGKGLEWIGYIYYAGSTNYSPSLKNRVTISVDTSKNHFSLQLRSVTAADTAVYYCARGGFPAELPPPLDPWGQGNLVTVSS
chain 2: SYELTQPPSVSVSPGQTASITCSGDNLGDKFASWYQQKPGQSPVLVIYQDIRRPSGIPERFSASNSGNTATLTISGTQVMDEADYYCQTWDSSTVLFGGGTKLTVL
B11: 01.ac.01 (protein)
chain 1: QVQVVQSGAEVRKPGASVRLSCKASGYTFDNYYIHWMRQAPGQGLEWMALINPSAGSTIFAQKFHGRVTMTRDTSTSAVHMELSGLRSEDTAVYYCARSQTWGYNIYFDYWGQGTLVTVSS
chain 2: EIVLTQSPVSLSLSPGERATLSCRASQSVSIIYLAWYQQRPGQAPRLLIYGASSRATGIPDRFSGSGCGTDFTLTISRLEHEDSAVYYCQQCGGTYPTFGQGTKVEIK
B12: K77-1F01 (protein)
chain 1: EVQLVESGGGLVQPGGSLRLSCAASGFTFSSYGMNWVRQAPGKGLEWISDISSDRSTIYYADSVKGRFTISRDNAKNSLYLQMNSLRVEDTAVYYCARDFMSYFFDYWGQGTLVTVSS
chain 2: QSALTQPASVSGSPGQSITISCTGTSSDVGAYNYVSWYQQHPGKAPKLLIYDVNNRPSGVSNRFSGSKSGNTASLTISGLQAEDEADYYCNSYTSISTGVFGGGTNVT

molecular target: Influenza A H1N1 A/Michigan/45/2015 hemagglutinin ectodomain; assay: mRNA display binding score; higher = more enriched on the antigen; details: antigen blocked with: 2 µM CR9114 IgG
Protocol: (§1)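 A pool of natively paired antibodies, displayed as scFv on mRNA, was selected once on antigen-coated beads and sequenced before and after; two replicates.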

Binder | mRNA display binding score
B1 | inactive: -0.198
B2 | inactive: -0.499
B3 | inactive: -0.271
B4 | inactive: 0.246
B5 | inactive: -0.254
B6 | inactive: -0.22
B7 | inactive: -0.293
B8 | inactive: -0.555
B9 | active: 8.91
B10 | inactive: -0.329
B11 | inactive: -0.46
B12 | inactive: 0.422

same assay, conditions: antigen blocked with: nothing

Binder | mRNA display binding score
B1 | inactive: -0.6
B2 | inactive: -0.35
B3 | inactive: -0.771
B4 | inactive: -0.153
B5 | inactive: -0.487
B6 | inactive: -0.696
B7 | inactive: -0.53
B8 | inactive: -0.168
B9 | inactive: 0.182
B10 | inactive: -0.738
B11 | inactive: -0.135
B12 | inactive: 0.789

molecular target: Influenza A H1N1 A/Solomon Islands/3/2006 hemagglutinin ectodomain; assay: as above; details: antigen blocked with: 2 µM CR9114 IgG
Protocol: as §1

Binder | mRNA display binding score
B1 | inactive: -0.541
B2 | inactive: -0.375
B3 | inactive: -0.366
B4 | inactive: 0.977
B5 | inactive: -0.00117
B6 | inactive: 0.108
B7 | inactive: 0.137
B8 | inactive: -0.288
B9 | inactive: 0.205
B10 | inactive: -0.154
B11 | inactive: -0.657
B12 | inactive: -0.0816

same assay, conditions: antigen blocked with: nothing

Binder | mRNA display binding score
B1 | inactive: 0.229
B2 | inactive: -0.237
B3 | inactive: -0.582
B4 | inactive: -0.382
B5 | inactive: -0.121
B6 | inactive: -0.381
B7 | inactive: 0.542
B8 | inactive: -0.0894
B9 | inactive: -0.199
B10 | inactive: -0.153
B11 | inactive: 0.325
B12 | inactive: 0.31

molecular target: Influenza A H3N2 A/Singapore/INFIMH-16-0019/2016 hemagglutinin ectodomain; assay: as above; details: antigen blocked with: nothing
Protocol: as §1

Binder | mRNA display binding score
B1 | inactive: -0.553
B2 | inactive: -0.457
B3 | inactive: -0.545
B4 | inactive: 0.491
B5 | inactive: -0.474
B6 | inactive: -0.147
B7 | inactive: -0.303
B8 | inactive: -0.334
B9 | inactive: -0.0612
B10 | inactive: -0.492
B11 | inactive: -0.444
B12 | inactive: 0.424

molecular target: Influenza A H5N1 A/Qinghai/1A/2005 hemagglutinin ectodomain; assay: as above; details: antigen blocked with: 2 µM CR9114 IgG
Protocol: as §1

Binder | mRNA display binding score
B1 | inactive: -0.454
B2 | inactive: -0.774
B3 | inactive: -0.89
B4 | inactive: 0.465
B5 | inactive: -0.106
B6 | inactive: -0.456
B7 | inactive: -0.0531
B8 | inactive: -0.227
B9 | inactive: -0.0297
B10 | inactive: -1
B11 | inactive: -0.324
B12 | inactive: 0.124

same assay, conditions: antigen blocked with: nothing

Binder | mRNA display binding score
B1 | inactive: -0.139
B2 | inactive: -0.0636
B3 | inactive: -0.66
B4 | inactive: -0.127
B5 | inactive: -0.395
B6 | inactive: -0.606
B7 | inactive: -0.358
B8 | inactive: -0.196
B9 | inactive: -0.305
B10 | inactive: -0.415
B11 | inactive: -0.291
B12 | inactive: 0.437

molecular target: Influenza A H7N9 A/Shanghai/2/2013 hemagglutinin ectodomain; assay: as above; details: antigen blocked with: 2 µM CR9114 IgG
Protocol: as §1

Binder | mRNA display binding score
B1 | inactive: -0.434
B2 | inactive: 0.776
B3 | inactive: -0.502
B4 | inactive: -0.49
B5 | inactive: 0.287
B6 | inactive: -0.27
B7 | inactive: 0.0528
B8 | inactive: -1.11
B9 | inactive: -0.245
B10 | inactive: 1.68
B11 | inactive: -0.463
B12 | inactive: -0.0225

same assay, conditions: antigen blocked with: nothing

Binder | mRNA display binding score
B1 | inactive: -0.525
B2 | inactive: -0.389
B3 | inactive: -0.765
B4 | inactive: -0.0665
B5 | inactive: -0.486
B6 | inactive: -0.583
B7 | inactive: -0.2
B8 | inactive: -0.269
B9 | inactive: -0.149
B10 | inactive: -0.551
B11 | inactive: -0.0735
B12 | inactive: 0.719

molecular target: Influenza B/Lee/1940 hemagglutinin ectodomain; assay: as above; details: antigen blocked with: 2 µM CR9114 IgG
Protocol: as §1

Binder | mRNA display binding score
B1 | inactive: -0.686
B2 | inactive: 1.01
B3 | inactive: 0.0309
B4 | inactive: -0.689
B5 | inactive: -0.238
B6 | inactive: 0.738
B7 | inactive: -0.353
B8 | inactive: -0.0771
B9 | inactive: -0.473
B10 | inactive: -0.0489
B11 | inactive: 0.23
B12 | inactive: -0.287

same assay, conditions: antigen blocked with: nothing

Binder | mRNA display binding score
B1 | inactive: -0.344
B2 | inactive: -0.0783
B3 | inactive: -0.344
B4 | inactive: -0.247
B5 | inactive: 0.787
B6 | inactive: -0.393
B7 | inactive: -0.343
B8 | inactive: -0.0741
B9 | inactive: -0.0715
B10 | inactive: 0.00469
B11 | inactive: 0.0347
B12 | inactive: -0.172

molecular target: Influenza B/Phuket/3073/2013 hemagglutinin ectodomain; assay: as above; details: antigen blocked with: 2 µM CR9114 IgG
Protocol: as §1

Binder | mRNA display binding score
B1 | inactive: -0.552
B2 | inactive: -0.366
B3 | inactive: -0.739
B4 | inactive: -0.206
B5 | inactive: -0.000368
B6 | inactive: -0.111
B7 | inactive: -0.48
B8 | inactive: -0.498
B9 | inactive: 0.0674
B10 | inactive: -0.432
B11 | inactive: -0.203
B12 | inactive: 0.242

same assay, conditions: antigen blocked with: nothing

Binder | mRNA display binding score
B1 | inactive: -0.192
B2 | inactive: -0.203
B3 | inactive: -0.431
B4 | inactive: 0.171
B5 | inactive: -0.219
B6 | inactive: -0.0775
B7 | inactive: -0.144
B8 | inactive: -0.333
B9 | inactive: -0.294
B10 | inactive: -0.205
B11 | inactive: -0.123
B12 | inactive: -0.0756

Reference: the supplement of paper PMC11383711
